Test results: PMC4336329 (PLoS ONE, 2015)
Screen size: about 310,000 compounds; about 2,200 (0.71%) showed an effect of 50% or more. Effects have a minus sign here. Some of the results follow.

Each compound was assayed against human ether-à-go-go-related gene (hERG) potassium channel (human, UniProt Q12809) (assay: primary screen, population patch clamp on CHO cells stably expressing hERG).
human ether-à-go-go-related gene (hERG) potassium channel, sequence (Q12809 whole entry, looked up): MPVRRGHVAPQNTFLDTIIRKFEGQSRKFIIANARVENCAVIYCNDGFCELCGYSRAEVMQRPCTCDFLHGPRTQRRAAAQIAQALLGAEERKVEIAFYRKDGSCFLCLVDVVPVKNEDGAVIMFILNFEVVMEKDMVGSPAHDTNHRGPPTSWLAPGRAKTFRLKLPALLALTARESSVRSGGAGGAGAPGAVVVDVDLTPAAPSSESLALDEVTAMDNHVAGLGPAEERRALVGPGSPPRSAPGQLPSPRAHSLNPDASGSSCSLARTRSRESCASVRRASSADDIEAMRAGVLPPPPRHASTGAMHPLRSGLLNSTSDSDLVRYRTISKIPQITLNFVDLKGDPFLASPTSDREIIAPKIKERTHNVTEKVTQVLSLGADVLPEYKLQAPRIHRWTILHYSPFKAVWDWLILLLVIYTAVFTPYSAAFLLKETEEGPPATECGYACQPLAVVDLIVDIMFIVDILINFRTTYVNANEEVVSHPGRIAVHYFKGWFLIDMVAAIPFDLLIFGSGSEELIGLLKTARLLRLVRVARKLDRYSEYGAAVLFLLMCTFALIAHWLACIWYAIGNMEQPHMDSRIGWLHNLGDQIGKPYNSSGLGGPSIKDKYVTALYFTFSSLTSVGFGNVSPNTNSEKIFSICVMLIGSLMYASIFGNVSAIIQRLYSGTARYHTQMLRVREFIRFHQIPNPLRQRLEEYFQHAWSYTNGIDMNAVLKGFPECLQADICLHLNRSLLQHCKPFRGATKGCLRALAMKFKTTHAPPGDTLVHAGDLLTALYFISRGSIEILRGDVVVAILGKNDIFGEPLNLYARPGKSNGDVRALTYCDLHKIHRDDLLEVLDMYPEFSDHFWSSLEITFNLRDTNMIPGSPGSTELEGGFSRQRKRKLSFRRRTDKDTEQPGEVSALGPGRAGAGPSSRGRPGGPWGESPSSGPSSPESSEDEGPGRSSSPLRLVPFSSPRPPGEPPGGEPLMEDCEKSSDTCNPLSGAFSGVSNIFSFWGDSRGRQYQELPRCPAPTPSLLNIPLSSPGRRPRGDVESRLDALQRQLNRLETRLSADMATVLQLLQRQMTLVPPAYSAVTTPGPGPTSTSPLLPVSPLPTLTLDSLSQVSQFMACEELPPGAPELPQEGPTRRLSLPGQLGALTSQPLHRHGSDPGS

In order of falling “hERG current change (%, negative = inhibition) at 1uM” value:
1. COC(=O)c1ccc(CN(c2ccccc2Cl)S(C)(=O)=O)cc1  28%
2. O=C(Nc1nc(-c2ccccc2)cs1)c1ccc2c(c1)S(=O)(=O)c1ccccc1C2=O  21.4%
3. COC/C=C/C1=CC2=CC(=O)C(C)(OC(=O)c3cnc4ccccc4n3)C(=O)C2=CO1 (stereo not drawn)  17.6%
4. COc1ccccc1N1C(=O)c2ccccc2NC1C(OC)OC (stereo not drawn)  16.2%
5. CCn1cc(C(=O)OCC(=O)c2cc(C)n(-c3cccc(C(F)(F)F)c3)c2C)c(=O)c2ccc(C)nc21  15.1%
6. Cc1ccc(S(=O)(=O)N/N=C/c2ccc3nccnc3c2)cc1  14.7%
7. Cl.N#CCCNCC1(c2ccccc2)CCCC1  14%
8. Cc1ccc(-n2ccc(=O)c(C(=O)Nc3ccc(S(=O)(=O)Nc4onc(C)c4C)cc3)n2)cc1  13.9%
9. CC(C)CC(=O)c1c[nH]c(C(=O)O)c1  13.5%
10. CCN1C(=O)/C(=C2/Sc3ccc(OC)cc3N2C)SC1=Nc1cccc(O)c1  13.2%
11. CCc1cc(CNC(=O)c2cc(COc3ccc(C)nc3)on2)on1  13.2%
12. COc1ccc(C(=O)NC2CCN(S(=O)(=O)c3ccccc3)CC2)cc1  12.9%
13. S=c1[nH]nc(-c2cccs2)n1Cc1ccccc1  12.8%
14. O=C(CSc1n[nH]c(-c2ccccc2)n1)Nc1ccccc1O  12.6%
15. O=C(NC1CC2CCCC(C1)N2C(=S)Nc1ccccc1)C1CC1 (stereo not drawn)  12.6%
16. CCCCNC(=O)NNC(=O)c1ccoc1C  12.2%
17. CCOc1ccc2oc(C(=O)N3CCN(Cc4ccccc4)CC3)c(C)c2c1  11.9%
18. C#Cc1ccc([C@H]2C=C(C(=O)NCc3ccccc3)O[C@@H](OCC)[C@@H]2CCCO)cc1  11.8%
19. CCOC(=O)N1CCC(NC(=O)c2cc(C(=O)NCc3cccc(Cl)c3)ccc2CO)CC1  11.5%
20. N#CC1=C(N)N2C(=C(C#N)C13CCCC3)Nc1ccccc12  11.5%
21. Nc1nonc1NC(=O)CSc1nc2ccccc2s1  11.2%
22. CSc1sc(C(=O)NNC(C)=O)c2c1C=CCC2  11.2%
23. Cc1csc(/C(=N/OC(=O)c2ccco2)C(N)=O)n1  11.2%
24. CNC(=O)c1ccc(NC(=O)C2CCN(c3ncnc4sc(C)c(C)c34)CC2)cc1  11.2%
25. COc1ccc(Cl)cc1NC(=S)N(CCN1CCOCC1)C1CCN(C(C)=O)CC1  11.1%
26. c1ccc(-c2csc3nnc(SCc4ccc5c(c4)OCCO5)n23)cc1  11%
27. Cn1c(=O)c(C(=O)NCCCc2ccccc2)c(O)c2ccccc21  11%
28. CC(C)c1ccc(C(=O)NNC(=O)C2CC=CCC2C(=O)O)cc1 (stereo not drawn)  10.8%
29. CCOc1ccc(NC(=O)CN(C)C(=O)c2cn(-c3ccc(F)cc3)nc2-c2cccc(OC)c2)cc1OCC  10.6%
30. CCC(=O)Oc1ccc(C(=O)Nc2cccc(C(=O)c3ccccc3)c2)cc1  10.6%
31. CCN1C(=O)C(O)(C2COC(C)(C)CC2=O)c2ccccc21 (stereo not drawn)  10.2%
32. CC(c1ccco1)N(C(=O)c1cccs1)c1ccccn1 (stereo not drawn)  10.1%
33. COCCNC(=O)c1ccc(C)c(NC(=O)C2=C(C)OCCS2)c1  10.1%
34. COc1ccc(NC(=O)c2c(NC(=O)CCC(=O)O)sc(-c3ccccc3)c2C)cc1  10%
35. CCOc1cc(C(=O)OCC(=O)Nc2ccc(SC(F)F)cc2)cc(OCC)c1OCC  9.91%
36. CN(C)CCCn1c(SCC(=O)N2CC(=O)Nc3ccccc32)nc2ccccc2c1=O  9.8%
37. Cc1cccc(OC(=O)c2cccnc2)c1  9.63%
38. CCc1nc2oc3ccccc3c(=O)c2cc1C(=O)OC  9.54%
39. COc1ccc(NC2CCCN(C(=O)c3ccccc3C(F)(F)F)C2)cc1 (stereo not drawn)  9.2%
40. CC(=O)NCCC(=O)Nc1ccc(C)c(F)c1  8.93%
41. O=C(NCc1cccs1)C1CCCN1C(=O)Nc1cccc(F)c1 (stereo not drawn)  8.78%
42. CCCCn1c(NC(=O)c2ccccc2Cl)c(C#N)c2nc3ccccc3nc21  8.64%
43. Cc1c(NC(=S)N/N=C/C=C/c2ccccc2)c(=O)n(-c2ccccc2)n1C  8.56%
44. C#CCNc1c(C)c(C)nc2ncnn12  8.1%
45. CC1=CC(=O)C2=C(C)CC[C@@H]3[C@H](OC(=O)[C@H]3C)[C@@H]12  8.08%
46. COc1ccc(OCc2nnc(SCC(=O)NCc3ccco3)o2)cc1  8%
47. CCc1ccc(N(CC(=O)NC2CCCCC2)C(=O)CCC(=O)Nc2ccccn2)cc1  7.77%
48. COc1cc(NC(=O)c2sc(C)nc2C)c(OC)cc1NC(=O)c1ccccc1  7.62%
49. CNC(=S)N1CCC(NC(=O)C23CC4CC(CC(C4)C2)C3)CC1  7.36%
50. O=C(Nc1ccnn1C1CCN(Cc2ccc(CO)o2)CC1)c1ccccc1Cl  6.94%
51. CNC(=O)C(=O)NCCCN1CCOCC1  6.67%
52. COc1cc(/C=C/C(=O)OCC(=O)Nc2ccc(NC(C)=O)cc2)cc(S(=O)(=O)N2CCc3ccccc32)c1OC  6.62%
53. CC(=O)c1cc(OC(=O)N2CCOCC2)ccc1OC(=O)N1CCOCC1  6.41%
54. O=C(O)CCC(=O)c1ccc2c(c1)OCCO2  6.21%
55. Cn1ccnc1SCC(=O)c1ccc2ccccc2c1  5.87%
56. O=c1[nH]c(CN2CCN(c3ccc(F)cc3)CC2)nc2ccccc12  5.63%
57. CN(Cc1cccs1)C(=O)c1ccc(S(=O)(=O)N2CCCCC2)cc1  5.49%
58. CCOC(=O)c1sc(NC(=O)CSc2nnnn2-c2ccc(C)cc2)c(C(=O)OCC)c1C  5.37%
59. COc1ccc(Br)cc1C(=O)Nc1cccc(-c2nnc(-c3ccco3)o2)c1  5.01%
60. COCC(C)n1c(SCC(=O)Nc2sccc2C(N)=O)nc2ccccc2c1=O (stereo not drawn)  4.61%
61. C/C(N)=C(/C#N)C(=O)COC(=O)CSc1ccc2ccccc2c1  4.58%
62. COCCNC(=O)C(C)Oc1ccccc1 (stereo not drawn)  4.2%
63. COc1ccccc1N(/N=C1\Sc2ccccc2C1=O)C(C)=O  3.78%
64. CC(=O)c1cccc(NC(=O)Cn2c(=O)oc3cc(S(=O)(=O)N4CCCC4)ccc32)c1  3.4%
65. CC1(C)C(=O)Nc2ccccc2N1C(=O)COC(=O)C1CCCCC1  2.65%
66. COc1ccccc1NC(=O)c1cccc(S(=O)(=O)N2CCN(Cc3ccccc3)CC2)c1  2.65%
67. O=C(COc1ccc(S(=O)(=O)N2CCCC2)cc1)NCCC1=CCCCC1  2.14%
68. COc1ccccc1NC(=O)C(C)OC(=O)COc1cccc2c1OC(C)(C)C2 (stereo not drawn)  1.18%
69. Cc1cc(NC(=O)CCC2CCCCC2)no1  1.07%
70. Cc1ccc(S(=O)(=O)N2CCc3ccccc3C2CC(=O)O)cc1 (stereo not drawn)  0.723%
71. COC(=O)c1ccccc1NC(=O)Oc1ccc(F)cc1  0.577%
72. CC(=O)c1c(O)c2ccccc2n(C2CCCCC2)c1=O  0.55%
73. FC(F)Sc1ccc(Nc2ncnc3nc[nH]c23)cc1  0.122%
74. C/C(=N/NS(=O)(=O)c1ccc(C)cc1)[C@H]1C[C@@H]1c1ccccc1  -0.507%
75. O=C1CC(C(=O)Nc2ccccc2)S/C(=N\N=C\c2ccco2)N1 (stereo not drawn)  -1.56%
76. CCCCN1CCNC[C@H]1Cc1ccc(O)cc1  -1.77%
77. O=C(CSc1ccccn1)Nc1cccc(NC(=O)CSc2ccccn2)n1  -1.96%
78. Cc1ccc(-c2cn(-c3ccccc3)c(SCC(N)=O)n2)cc1C  -2%
79. O=C(NCCCN1CCCC1=O)C1CCN(S(=O)(=O)c2c(Cl)cccc2Cl)CC1  -2.09%
80. O=C(COc1ccc(-n2ccnc2)cc1)Nc1cccc(Cl)c1  -3.13%
81. O=C(Nc1cccc(C(=O)N2CCOCC2)c1)c1ccccc1  -3.28%
82. COc1ccc(-c2nnc(SC(C)C(=O)Nc3nccs3)n2-c2ccccc2)cc1OC (stereo not drawn)  -4.2%
83. COc1cc(/C=C2/SC(=O)NC2=O)ccc1OC(=O)c1ccco1  -5.08%
84. CC1(C)CC(CC(=O)Nc2ccccn2)C(=O)O1 (stereo not drawn)  -5.36%
85. Cn1c(SCC(=O)Nc2ccccc2F)nnc1-c1cc2ccccc2o1  -7.25%
86. COc1ccc(CCNC(=O)CSc2ncn[nH]2)cc1  -7.86%
87. CN(Cc1c(C(=O)N(C)Cc2ccccc2)nc2ccccn12)CC1Cc2ccccc2O1 (stereo not drawn)  -13.4%
88. CC(C)(C)c1ccc(C(=O)N2CCNCC2)cc1.Cl  -15.7%
89. Cc1cccc(OP(=O)(Nc2cccnc2)Oc2cccc(C)c2)c1  -21.4%
90. Cc1ccc(CN2C3CCCC2CC(NC(=O)c2ccc(C)cc2)C3)cc1 (stereo not drawn)  -77.3%
